Results from PubChem BioAssay AID1466 (National Center for Advancing Translational Sciences (NCATS), 2008).
The whole screen tested about 200,000 compounds, of which about 10 (0.005%) were called active. Inconclusive means that the source gave no clear call. Such entries were picked first, then a sample of the others. The call rests on the fitted dose curve; in most records, active means well fitted inhibition curve with a large enough effect; inconclusive means small, poorly fitted or top-dose-only effect, or effect the other way, or another doubt; inactive means no such curve, though single readings can be large or run the other way. Potencies of inconclusive entries are left out as doubtful fits.

Each compound was assayed against Lysosomal alpha-glucosidase (Homo sapiens) (UniProt P10253) (assay: qHTS Assay for Inhibitors of Human alpha-Glucosidase as a Potential Chaperone Treatment of Pompe Disease). Conditions: purified human GAA, 4-MU-alpha-glucoside fluorescence; activity change, negative = inhibition: at 76.9 µM (top of the series) unless noted.
Summary of the method: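 Read-out is 4-methylumbelliferone fluorescence (Ex 365/Em 440 nm) after NaOH/glycine stop at pH 10. Enzyme 4 nM, substrate 400 uM, pH 5.0 citrate buffer, 20 min room temperature; AC50 from Hill-equation concentration-response.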
Potency means the concentration at half of the fitted maximal effect; tags describe the fitted curve by direction and shape.
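Wherever activity change, negative = inhibition is given: plate controls were uninhibited enzyme wells for no effect and no-enzyme background for full effect.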

Row | SMILES | Potency | activity change, negative = inhibition
1 | COCCN1Cc2cc3cc(C)ccc3nc2SC1=Nc1ccc(OC)cc1 | inconclusive [inhibitor, single point] | 
2 | COCCCNc1nc2c(-c3cccc(C)c3)nnn2c2ccccc12 | inconclusive [activator, single point] | 
3 | Cc1ccc(C)n1-c1ccc(-c2nnc3n2CCCCC3)s1 | inactive | 
4 | O=C(O)CCCN1C(=O)/C(=C/c2cn(-c3ccccc3)nc2-c2cccs2)SC1=S | inconclusive [inhibitor, single point] | 
5 | CCOc1ccc2nc(SCc3ccc(C(=O)OC)o3)[nH]c2c1 | inconclusive [inhibitor, single point] | 
6 | CCOC(=O)c1c(-c2ccc(C)o2)csc1NC(=O)CN1CCC(C(N)=O)CC1 | inactive | 
7 | CCCn1cc2c(c1-c1ccc(C)cc1)c(=O)n(C)c(=O)n2C |  | inconclusive: 17.2% [activator]
8 | Cn1c(C(=O)NCCN2CCc3ccccc3C2)cc2c(=O)n(C)c3ccccc3c21 | inconclusive [inhibitor, single point] | 
9 | CC1CCc2c(sc(NC(=O)CSc3nnc(-c4ccccc4)o3)c2C#N)C1 (configuration not stated) | inconclusive [inhibitor, single point] | 
10 | O=C(NC12CC3CC(CC(C3)C1)C2)N1CCN(c2ncccn2)CC1 |  | inconclusive: 16.8% [activator]
11 | CCn1c(COc2ccccc2C)nnc1SCC(=O)N1CCC(C)CC1 | inconclusive [inhibitor, single point] | 
12 | Cc1ccc(NC(=O)CSC2=C(C#N)C(c3ccco3)C3=C(CCCC3=O)N2)cc1 (configuration not stated) |  | inconclusive: -16% [inhibitor]
13 | O=S(=O)(NC1CCCCC1)c1ccc(F)c2ccccc12 | inconclusive [inhibitor, partial curve, poor fit] | 
14 | O=C(NC(Nc1ncc(S(=O)(=O)c2ccc([N+](=O)[O-])cc2)s1)(C(F)(F)F)C(F)(F)F)c1ccc(Cl)cc1 | inconclusive [inhibitor, full curve] | 
15 | O=C(c1cc(-c2ccccc2O)on1)N1CCc2ccccc2C1 | inconclusive [inhibitor, single point] | 
16 | S=C(Nc1ccc2nccnc2c1)N1CCOCC1 | inactive | 
17 | CC(C)(C)NC(=O)/C(=C/c1ccco1)c1ccccc1 | inconclusive [inhibitor, single point] | 
18 | COc1ccccc1N1CCN(C(=O)c2cc(N3C(=O)C4C5CCC(C5)C4C3=O)ccc2Cl)CC1 (configuration not stated) | inconclusive [inhibitor, full curve, poor fit] | 
19 | CCN1CCN(Cc2c(O)ccc3c2O/C(=C\c2ccccc2)C3=O)CC1 | inconclusive [inhibitor, single point] | 
20 | Oc1ccccc1-c1nnc(SCCN2CCOCC2)n1Cc1ccccc1 | inconclusive [inhibitor, partial curve] | 
21 | CCOC(=O)N1CCN(C(=O)C2CCCN(S(C)(=O)=O)C2)CC1 (configuration not stated) | inconclusive [inhibitor, partial curve, poor fit] | 

Row | SMILES | Potency | activity change, negative = inhibition
22 | CCOC(=O)c1[nH]c(C)c(C)c1C |  | inconclusive: 8.81% [activator]
23 | COc1ccc(C2CC(=O)N3C(=C2C#N)SCC3(O)c2ccccc2)cc1 (configuration not stated) | inconclusive [inhibitor, single point] | 
24 | CS(=O)(=O)N1CCN(C(=O)c2cc(-c3cccs3)nc3ccccc23)CC1 | inconclusive [activator, partial curve] | 
25 | COc1ccc(N=C2SC(CC(=O)Nc3ccc(F)cc3)C(=O)N2Cc2ccco2)cc1 (configuration not stated) | inconclusive [inhibitor, single point] | 
26 | COC(=O)C1=COC(C)C2CN3CCc4c([nH]c5ccccc45)C3CC12 (configuration not stated) | inactive | 
27 | CCOC(=O)c1[nH]c2ccc(C)cc2c1N=C(C)N(C)C | inconclusive [inhibitor, full curve, poor fit] | 
28 | O=[n+]1c2c(n([O-])c3cc(F)c(F)cc31)CCCC2 | inconclusive [inhibitor, single point] | 
29 | Cc1cc(C(C)(C)C)oc1C(=O)N(CC(=O)NC1CCCC1)c1cccc(C(F)(F)F)c1 | inconclusive [inhibitor, full curve] | 
30 | Cc1ccc(Cc2cnc(NC(=O)C3=NCCN3)s2)cc1 | inconclusive [inhibitor, full curve, poor fit] | 
31 | O=C(O)CNS(=O)(=O)c1ccc(-c2ccccc2)cc1 | inconclusive [inhibitor, full curve, poor fit] | 
32 | CC(=O)Nc1ccc(N/C=C/C(=O)c2ccco2)cc1 | inactive | 
33 | COc1ccc(/C=C(\C#N)C(=O)OCC(=O)NCc2ccccc2)cc1 | inconclusive [activator, single point] | 
34 | O=C(COC(=O)c1c2c(nc3ccccc13)/C(=C/c1ccco1)CC2)NC1CCCC1 | inconclusive [inhibitor, single point] | 
35 | COc1ccc(OC)c(NC(=O)Nc2cccc(Cn3cccn3)c2)c1 | inconclusive [inhibitor, single point] | 
36 | Cc1cc(N2CCOCC2)nc2ccc(NC(=S)N3CCN(c4ccccc4)CC3)cc12 |  | inconclusive: 16.6% [activator]
37 | COCCOC(=O)c1c(C)oc2ccc(OS(C)(=O)=O)cc12 |  | inconclusive: 17.3% [activator]
38 | COc1cccc(-c2csc(N3CCN(C(=O)Nc4ccc(Cl)cc4)CC3)n2)c1 | inconclusive [inhibitor, single point] | 
39 | COC(=O)c1c(N)sc(Cc2ccccc2)c1C | inconclusive [activator, full curve, poor fit] | 
40 | Cn1c(CCc2ccc(N)cc2)nc2ccccc21 | inconclusive [inhibitor, single point] | 
41 | CCN(CC)C(=O)Oc1c(Cl)cc(Cl)c2cccnc12 |  | inconclusive: 9.98% [activator]
42 | Cc1c(/C(O)=C2\C(=O)C(=O)N(CCN(C)C)C2c2cccs2)cnn1-c1ccccc1 (configuration not stated) | inconclusive [inhibitor, partial curve] | 
